Results taken from publication PMC11549370, “Two distinct regulatory pathways govern Cct2-Atg8 binding in the process of solid aggrephagy” (EMBO Reports, 2024).
These are yes or no findings as the source states them, for the method shown. For some assays here: In cells and extracts the contact can be indirect. Some results given as binding are weak or reduced against the parent protein; the word gives no strength. For some assays here: Where a sequence is shown, tags or fusion partners need not be part of it. Each block holds one molecule with its values, some of them ahead of it.

Sequences of proteins named here, by UniProt entry; tags and fusion partners are left off. Residues count along the entry.
UniProt Q9BXW4, residues 1-126: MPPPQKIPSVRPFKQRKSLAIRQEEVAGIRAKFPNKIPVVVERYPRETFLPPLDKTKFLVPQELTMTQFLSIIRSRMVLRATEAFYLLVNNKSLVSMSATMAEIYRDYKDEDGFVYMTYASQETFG
UniProt P39076: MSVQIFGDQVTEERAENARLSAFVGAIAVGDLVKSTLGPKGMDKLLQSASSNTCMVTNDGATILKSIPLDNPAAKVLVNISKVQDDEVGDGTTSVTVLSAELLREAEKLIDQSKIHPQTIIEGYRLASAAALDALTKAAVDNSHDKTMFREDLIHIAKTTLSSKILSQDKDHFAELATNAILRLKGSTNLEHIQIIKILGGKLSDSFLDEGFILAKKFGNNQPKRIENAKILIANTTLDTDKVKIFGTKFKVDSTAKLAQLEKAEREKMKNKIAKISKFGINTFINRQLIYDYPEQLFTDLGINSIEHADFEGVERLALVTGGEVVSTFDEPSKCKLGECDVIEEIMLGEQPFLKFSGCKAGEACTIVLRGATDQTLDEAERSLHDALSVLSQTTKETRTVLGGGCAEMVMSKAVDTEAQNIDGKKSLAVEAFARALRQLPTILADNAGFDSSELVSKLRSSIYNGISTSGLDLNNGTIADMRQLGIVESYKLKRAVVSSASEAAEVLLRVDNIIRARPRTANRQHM
UniProt P12612: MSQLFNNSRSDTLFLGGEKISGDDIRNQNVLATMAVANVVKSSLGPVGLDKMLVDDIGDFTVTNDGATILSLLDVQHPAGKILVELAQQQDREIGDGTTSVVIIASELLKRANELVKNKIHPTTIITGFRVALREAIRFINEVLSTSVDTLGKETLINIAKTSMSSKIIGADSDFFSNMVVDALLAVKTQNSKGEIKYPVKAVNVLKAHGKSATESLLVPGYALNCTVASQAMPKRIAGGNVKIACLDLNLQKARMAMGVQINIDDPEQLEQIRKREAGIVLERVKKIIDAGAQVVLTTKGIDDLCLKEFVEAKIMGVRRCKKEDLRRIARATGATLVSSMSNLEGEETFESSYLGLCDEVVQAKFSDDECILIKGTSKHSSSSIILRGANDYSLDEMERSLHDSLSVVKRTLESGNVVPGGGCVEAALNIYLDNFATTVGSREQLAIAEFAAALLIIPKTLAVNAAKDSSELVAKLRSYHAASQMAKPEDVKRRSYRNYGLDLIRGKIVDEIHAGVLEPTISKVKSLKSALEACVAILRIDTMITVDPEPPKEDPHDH
UniProt P39078: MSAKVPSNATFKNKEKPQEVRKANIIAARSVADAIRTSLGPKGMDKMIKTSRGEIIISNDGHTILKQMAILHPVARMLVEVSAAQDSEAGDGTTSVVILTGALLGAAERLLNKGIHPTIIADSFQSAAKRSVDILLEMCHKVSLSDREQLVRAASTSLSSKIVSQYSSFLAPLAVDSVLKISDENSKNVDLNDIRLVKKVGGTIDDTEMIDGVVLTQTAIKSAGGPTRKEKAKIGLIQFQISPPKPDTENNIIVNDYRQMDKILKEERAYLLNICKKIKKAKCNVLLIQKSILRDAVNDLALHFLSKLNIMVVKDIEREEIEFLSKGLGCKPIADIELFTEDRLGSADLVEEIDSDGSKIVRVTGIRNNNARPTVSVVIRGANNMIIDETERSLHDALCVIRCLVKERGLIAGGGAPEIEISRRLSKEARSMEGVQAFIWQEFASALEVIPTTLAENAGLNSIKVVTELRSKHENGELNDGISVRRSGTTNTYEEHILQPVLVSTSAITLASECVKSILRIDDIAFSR
UniProt P40413: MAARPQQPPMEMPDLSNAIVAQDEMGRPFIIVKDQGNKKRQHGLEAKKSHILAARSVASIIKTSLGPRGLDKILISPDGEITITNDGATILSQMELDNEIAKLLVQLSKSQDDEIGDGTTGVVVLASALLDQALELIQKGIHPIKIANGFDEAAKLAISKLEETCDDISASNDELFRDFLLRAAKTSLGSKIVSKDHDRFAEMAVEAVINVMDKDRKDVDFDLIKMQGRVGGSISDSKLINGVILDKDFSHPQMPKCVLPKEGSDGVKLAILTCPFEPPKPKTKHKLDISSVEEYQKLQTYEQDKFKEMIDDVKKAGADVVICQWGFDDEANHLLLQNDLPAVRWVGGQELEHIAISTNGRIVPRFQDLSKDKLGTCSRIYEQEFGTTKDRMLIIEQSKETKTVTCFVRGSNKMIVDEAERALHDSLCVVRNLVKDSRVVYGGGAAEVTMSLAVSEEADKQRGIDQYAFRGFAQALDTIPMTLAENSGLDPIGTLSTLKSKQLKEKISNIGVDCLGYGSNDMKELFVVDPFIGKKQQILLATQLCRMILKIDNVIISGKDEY
UniProt P47079: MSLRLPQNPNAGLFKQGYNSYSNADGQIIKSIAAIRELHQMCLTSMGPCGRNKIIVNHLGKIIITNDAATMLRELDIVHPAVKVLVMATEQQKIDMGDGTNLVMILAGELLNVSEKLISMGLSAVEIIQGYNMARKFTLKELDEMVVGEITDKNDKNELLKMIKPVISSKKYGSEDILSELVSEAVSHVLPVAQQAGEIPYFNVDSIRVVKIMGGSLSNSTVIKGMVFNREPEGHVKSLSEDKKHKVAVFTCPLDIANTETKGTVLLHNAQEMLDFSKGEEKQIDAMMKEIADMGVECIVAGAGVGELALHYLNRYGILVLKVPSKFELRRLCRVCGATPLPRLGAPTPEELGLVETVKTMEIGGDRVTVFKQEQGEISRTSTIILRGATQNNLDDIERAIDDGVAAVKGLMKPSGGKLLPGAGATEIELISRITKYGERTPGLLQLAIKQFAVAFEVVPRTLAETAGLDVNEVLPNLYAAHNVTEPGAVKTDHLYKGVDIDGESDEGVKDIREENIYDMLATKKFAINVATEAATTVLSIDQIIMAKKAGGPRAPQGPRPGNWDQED
UniProt Q8TDY2: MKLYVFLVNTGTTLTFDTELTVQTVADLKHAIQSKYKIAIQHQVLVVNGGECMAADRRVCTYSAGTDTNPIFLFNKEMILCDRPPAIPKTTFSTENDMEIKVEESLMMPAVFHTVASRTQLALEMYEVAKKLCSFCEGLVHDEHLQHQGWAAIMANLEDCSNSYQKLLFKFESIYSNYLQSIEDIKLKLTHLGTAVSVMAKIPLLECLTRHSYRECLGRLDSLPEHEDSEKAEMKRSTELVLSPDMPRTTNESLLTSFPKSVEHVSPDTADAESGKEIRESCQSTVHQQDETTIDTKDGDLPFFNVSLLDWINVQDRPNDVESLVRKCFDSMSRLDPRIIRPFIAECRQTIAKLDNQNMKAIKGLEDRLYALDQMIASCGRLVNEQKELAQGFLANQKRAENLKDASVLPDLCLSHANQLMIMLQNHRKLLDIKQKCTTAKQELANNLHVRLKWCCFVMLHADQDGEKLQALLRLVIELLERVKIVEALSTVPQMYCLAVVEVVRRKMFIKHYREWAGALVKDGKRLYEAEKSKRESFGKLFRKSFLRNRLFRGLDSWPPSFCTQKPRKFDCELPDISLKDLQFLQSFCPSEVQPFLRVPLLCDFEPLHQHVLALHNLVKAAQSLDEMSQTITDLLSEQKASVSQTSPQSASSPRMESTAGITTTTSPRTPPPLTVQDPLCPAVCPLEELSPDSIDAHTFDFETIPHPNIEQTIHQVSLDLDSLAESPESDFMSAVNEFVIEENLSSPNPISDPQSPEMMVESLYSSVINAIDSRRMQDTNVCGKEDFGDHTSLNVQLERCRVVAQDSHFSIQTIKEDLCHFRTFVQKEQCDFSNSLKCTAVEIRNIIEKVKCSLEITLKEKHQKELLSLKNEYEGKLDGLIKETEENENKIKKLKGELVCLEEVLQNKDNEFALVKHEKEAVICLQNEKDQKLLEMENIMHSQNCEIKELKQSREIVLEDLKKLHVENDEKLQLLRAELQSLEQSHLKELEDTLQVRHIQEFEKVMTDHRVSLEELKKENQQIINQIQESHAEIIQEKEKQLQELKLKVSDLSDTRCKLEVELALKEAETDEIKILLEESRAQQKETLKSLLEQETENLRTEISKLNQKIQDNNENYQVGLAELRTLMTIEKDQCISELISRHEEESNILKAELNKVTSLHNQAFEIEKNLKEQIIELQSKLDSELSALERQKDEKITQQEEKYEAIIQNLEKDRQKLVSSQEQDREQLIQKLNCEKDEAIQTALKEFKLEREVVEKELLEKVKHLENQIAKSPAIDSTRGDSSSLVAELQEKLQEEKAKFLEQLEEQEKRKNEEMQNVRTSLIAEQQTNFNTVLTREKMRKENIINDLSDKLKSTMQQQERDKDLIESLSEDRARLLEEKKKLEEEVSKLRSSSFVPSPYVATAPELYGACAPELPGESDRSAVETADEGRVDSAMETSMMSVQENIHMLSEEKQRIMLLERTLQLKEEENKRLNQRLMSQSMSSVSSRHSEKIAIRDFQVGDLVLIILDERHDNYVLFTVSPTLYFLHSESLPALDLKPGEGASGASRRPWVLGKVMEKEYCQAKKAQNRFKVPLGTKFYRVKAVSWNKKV

Columns and labels:
[1] = target: T1, 3×FLAG-Atg8 (S. cerevisiae) (UniProt P38182); test: co-IP; lysates of ape1∆ atg11∆ yeast with Ape1 P22L, nutrient-rich conditions; anti-FLAG agarose beads, western blot with anti-HA
T1 sequence: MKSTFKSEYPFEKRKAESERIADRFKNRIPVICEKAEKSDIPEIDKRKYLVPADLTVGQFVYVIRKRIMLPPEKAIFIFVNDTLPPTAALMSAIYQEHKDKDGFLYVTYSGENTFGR

[2] = target: T2, Atg11-3×FLAG (S. cerevisiae) (UniProt Q12527); test: co-IP; lysates of yeast co-expressing the tagged proteins, nutrient-rich conditions, with or without Ape1 P22L; anti-FLAG or anti-HA agarose beads, western blot; also done in atg1∆, atg2∆, atg14∆ and atg8∆ strains
T2 sequence: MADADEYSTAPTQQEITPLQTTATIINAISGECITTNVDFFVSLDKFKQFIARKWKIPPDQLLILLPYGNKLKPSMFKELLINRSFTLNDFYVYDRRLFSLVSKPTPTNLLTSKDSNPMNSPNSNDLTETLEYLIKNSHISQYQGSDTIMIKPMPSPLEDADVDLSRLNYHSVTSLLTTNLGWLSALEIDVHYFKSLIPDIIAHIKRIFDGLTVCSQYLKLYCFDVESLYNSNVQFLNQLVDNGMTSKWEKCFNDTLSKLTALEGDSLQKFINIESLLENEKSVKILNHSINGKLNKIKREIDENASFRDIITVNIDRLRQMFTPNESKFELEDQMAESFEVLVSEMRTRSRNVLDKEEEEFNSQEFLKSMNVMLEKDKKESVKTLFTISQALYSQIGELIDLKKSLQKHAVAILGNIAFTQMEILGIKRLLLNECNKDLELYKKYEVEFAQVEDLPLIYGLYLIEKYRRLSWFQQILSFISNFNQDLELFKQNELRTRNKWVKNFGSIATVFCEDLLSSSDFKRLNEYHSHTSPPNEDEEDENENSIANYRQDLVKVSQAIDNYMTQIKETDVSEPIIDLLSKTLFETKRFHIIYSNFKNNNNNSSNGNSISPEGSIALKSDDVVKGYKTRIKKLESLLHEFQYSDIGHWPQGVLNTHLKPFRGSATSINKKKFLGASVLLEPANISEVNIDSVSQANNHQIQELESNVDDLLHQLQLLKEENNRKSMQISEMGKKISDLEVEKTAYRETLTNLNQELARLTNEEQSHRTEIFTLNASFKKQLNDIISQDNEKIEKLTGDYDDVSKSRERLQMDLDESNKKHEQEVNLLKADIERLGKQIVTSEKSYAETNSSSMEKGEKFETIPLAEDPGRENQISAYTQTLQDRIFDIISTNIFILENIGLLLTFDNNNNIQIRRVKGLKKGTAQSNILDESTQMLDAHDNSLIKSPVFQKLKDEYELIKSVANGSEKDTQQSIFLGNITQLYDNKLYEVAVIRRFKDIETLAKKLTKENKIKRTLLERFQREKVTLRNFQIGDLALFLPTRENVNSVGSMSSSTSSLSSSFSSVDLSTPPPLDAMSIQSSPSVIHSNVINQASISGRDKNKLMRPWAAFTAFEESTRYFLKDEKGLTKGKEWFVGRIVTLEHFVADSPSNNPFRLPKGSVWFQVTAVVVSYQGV

[3] = target: T1, 3×FLAG-Atg8 (S. cerevisiae); test: as above
[4] = target: T3, Atg1-3×FLAG (S. cerevisiae) (UniProt P53104); test: as above
T3 sequence: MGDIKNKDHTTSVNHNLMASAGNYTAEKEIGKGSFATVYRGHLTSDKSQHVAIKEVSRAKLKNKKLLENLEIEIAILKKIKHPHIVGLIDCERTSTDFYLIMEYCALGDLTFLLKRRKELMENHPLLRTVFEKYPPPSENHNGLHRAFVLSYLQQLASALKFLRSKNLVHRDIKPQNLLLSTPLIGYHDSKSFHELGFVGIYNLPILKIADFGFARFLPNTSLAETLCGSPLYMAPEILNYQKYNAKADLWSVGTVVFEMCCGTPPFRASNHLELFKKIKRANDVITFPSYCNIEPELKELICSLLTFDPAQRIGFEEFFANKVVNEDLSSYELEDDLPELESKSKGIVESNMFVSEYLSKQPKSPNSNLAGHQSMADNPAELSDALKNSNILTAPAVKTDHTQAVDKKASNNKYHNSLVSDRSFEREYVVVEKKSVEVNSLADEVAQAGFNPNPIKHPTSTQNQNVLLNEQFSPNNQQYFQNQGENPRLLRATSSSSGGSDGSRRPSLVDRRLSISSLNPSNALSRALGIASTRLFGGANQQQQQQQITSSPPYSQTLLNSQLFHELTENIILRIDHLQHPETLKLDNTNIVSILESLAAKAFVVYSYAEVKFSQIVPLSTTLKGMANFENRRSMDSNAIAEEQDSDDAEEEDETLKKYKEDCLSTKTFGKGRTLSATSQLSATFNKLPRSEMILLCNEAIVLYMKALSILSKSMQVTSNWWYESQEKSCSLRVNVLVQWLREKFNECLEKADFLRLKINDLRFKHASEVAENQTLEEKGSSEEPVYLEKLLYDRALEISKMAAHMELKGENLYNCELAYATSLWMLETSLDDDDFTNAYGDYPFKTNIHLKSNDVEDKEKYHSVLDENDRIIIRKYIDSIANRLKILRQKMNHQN

FLAG-CCT2 (human) = target: T4, FLAG-CCT2 (human) (UniProt P78371); test: co-IP; HEK293T co-transfected with the tagged proteins and SOD1 G93A-GFP; lysis in 20 mM Tris-HCl pH 7.5, 150 mM NaCl, 1 mM EDTA, 0.5% NP40; anti-FLAG or anti-HA agarose, 4 h, 4 °C; western blot
T4 sequence: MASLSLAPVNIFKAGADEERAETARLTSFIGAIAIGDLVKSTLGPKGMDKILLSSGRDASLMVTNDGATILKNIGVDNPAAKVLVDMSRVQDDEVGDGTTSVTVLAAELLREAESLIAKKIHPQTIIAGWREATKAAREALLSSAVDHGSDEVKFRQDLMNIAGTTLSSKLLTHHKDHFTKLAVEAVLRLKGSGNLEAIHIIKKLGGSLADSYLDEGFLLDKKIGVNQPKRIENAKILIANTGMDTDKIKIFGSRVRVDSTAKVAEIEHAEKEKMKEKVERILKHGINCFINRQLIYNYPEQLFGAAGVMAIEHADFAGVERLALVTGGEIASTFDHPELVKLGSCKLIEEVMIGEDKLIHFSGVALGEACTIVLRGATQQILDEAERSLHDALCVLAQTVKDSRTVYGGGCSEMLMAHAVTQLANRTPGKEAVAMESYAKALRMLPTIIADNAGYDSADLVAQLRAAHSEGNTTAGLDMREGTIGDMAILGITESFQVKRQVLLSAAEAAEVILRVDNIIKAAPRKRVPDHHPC

FLAG-LC3C [5] = target: FLAG-LC3C (UniProt Q9BXW4); test: co-IP; WT or ULK1 KO MEF cells co-transfected with FLAG-LC3C, HA-CCT2 and SOD1 G93A-GFP; anti-FLAG agarose, western blot with anti-HA
FLAG-LC3C [6] = target: FLAG-LC3C (UniProt Q9BXW4); test: co-IP; WT, FIP200 KO or WIPI2 KO HeLa cells co-transfected with FLAG-LC3C, HA-CCT2 and SOD1 G93A-GFP; anti-FLAG agarose, western blot with anti-HA
FLAG-LC3C [7] = target: FLAG-LC3C (UniProt Q9BXW4); test: co-IP; HEK293T co-transfected with the tagged proteins and SOD1 G93A-GFP; lysis in 20 mM Tris-HCl pH 7.5, 150 mM NaCl, 1 mM EDTA, 0.5% NP40; anti-FLAG or anti-HA agarose, 4 h, 4 °C; western blot
GST-LC3C = GST-LC3C (UniProt Q9BXW4); test: pull-down; in vitro GST pulldown: GST-tagged protein on GST beads, prey added in binding buffer B (1 mM EDTA, 1 mM EGTA, 150 mM NaCl, 1% Triton X-100 in 1×PBS), 3 h, 4 °C; SDS-PAGE, Coomassie staining; both purified

binding [1]: binds weakly
binding [2]: binds
binding [3]: binds
binding [4]: binds
Molecule: 3×HA-Cct2 (from UniProt P39076 1-527)

binding [3]: no binding
Molecule: HA-Cct1 (from UniProt P12612 1-559)

binding [3]: no binding
Molecule: HA-Cct4 (from UniProt P39078 1-528)

binding [3]: no binding
Molecule: HA-Cct5 (from UniProt P40413 1-562)

binding [3]: no binding
Molecule: HA-Cct8 (from UniProt P47079 1-568)

binding (FLAG-CCT2 (human)): binds
Molecule: HA-FIP200 (from UniProt Q8TDY2 1-1594)

binding (FLAG-LC3C [5]): binds
binding (FLAG-LC3C [6]): binds
binding (FLAG-LC3C [7]): binds
B1: HA-CCT2 (protein, UniProt P78371 1-535)
chain: MASLSLAPVNIFKAGADEERAETARLTSFIGAIAIGDLVKSTLGPKGMDKILLSSGRDASLMVTNDGATILKNIGVDNPAAKVLVDMSRVQDDEVGDGTTSVTVLAAELLREAESLIAKKIHPQTIIAGWREATKAAREALLSSAVDHGSDEVKFRQDLMNIAGTTLSSKLLTHHKDHFTKLAVEAVLRLKGSGNLEAIHIIKKLGGSLADSYLDEGFLLDKKIGVNQPKRIENAKILIANTGMDTDKIKIFGSRVRVDSTAKVAEIEHAEKEKMKEKVERILKHGINCFINRQLIYNYPEQLFGAAGVMAIEHADFAGVERLALVTGGEIASTFDHPELVKLGSCKLIEEVMIGEDKLIHFSGVALGEACTIVLRGATQQILDEAERSLHDALCVLAQTVKDSRTVYGGGCSEMLMAHAVTQLANRTPGKEAVAMESYAKALRMLPTIIADNAGYDSADLVAQLRAAHSEGNTTAGLDMREGTIGDMAILGITESFQVKRQVLLSAAEAAEVILRVDNIIKAAPRKRVPDHHPC

binding (GST-LC3C): binds
B2: TF-hCCT2 S458A (protein, UniProt P78371 1-535)
chain: MASLSLAPVNIFKAGADEERAETARLTSFIGAIAIGDLVKSTLGPKGMDKILLSSGRDASLMVTNDGATILKNIGVDNPAAKVLVDMSRVQDDEVGDGTTSVTVLAAELLREAESLIAKKIHPQTIIAGWREATKAAREALLSSAVDHGSDEVKFRQDLMNIAGTTLSSKLLTHHKDHFTKLAVEAVLRLKGSGNLEAIHIIKKLGGSLADSYLDEGFLLDKKIGVNQPKRIENAKILIANTGMDTDKIKIFGSRVRVDSTAKVAEIEHAEKEKMKEKVERILKHGINCFINRQLIYNYPEQLFGAAGVMAIEHADFAGVERLALVTGGEIASTFDHPELVKLGSCKLIEEVMIGEDKLIHFSGVALGEACTIVLRGATQQILDEAERSLHDALCVLAQTVKDSRTVYGGGCSEMLMAHAVTQLANRTPGKEAVAMESYAKALRMLPTIIADNAGYDAADLVAQLRAAHSEGNTTAGLDMREGTIGDMAILGITESFQVKRQVLLSAAEAAEVILRVDNIIKAAPRKRVPDHHPC

binding (GST-LC3C): binds
B3: TF-hCCT2 (protein, UniProt P78371 1-535)
chain: MASLSLAPVNIFKAGADEERAETARLTSFIGAIAIGDLVKSTLGPKGMDKILLSSGRDASLMVTNDGATILKNIGVDNPAAKVLVDMSRVQDDEVGDGTTSVTVLAAELLREAESLIAKKIHPQTIIAGWREATKAAREALLSSAVDHGSDEVKFRQDLMNIAGTTLSSKLLTHHKDHFTKLAVEAVLRLKGSGNLEAIHIIKKLGGSLADSYLDEGFLLDKKIGVNQPKRIENAKILIANTGMDTDKIKIFGSRVRVDSTAKVAEIEHAEKEKMKEKVERILKHGINCFINRQLIYNYPEQLFGAAGVMAIEHADFAGVERLALVTGGEIASTFDHPELVKLGSCKLIEEVMIGEDKLIHFSGVALGEACTIVLRGATQQILDEAERSLHDALCVLAQTVKDSRTVYGGGCSEMLMAHAVTQLANRTPGKEAVAMESYAKALRMLPTIIADNAGYDSADLVAQLRAAHSEGNTTAGLDMREGTIGDMAILGITESFQVKRQVLLSAAEAAEVILRVDNIIKAAPRKRVPDHHPC
